These results are taken from publication PMC4242493.

The list shows a part of the results. The list includes weakly bound sequences.

The target of this assay is MaxL homodimer (UniProt P61244). Put plainly: universal protein-binding microarray (PBM). Conditions: PBS-based mixture, 10 nM His-tagged protein dimer, 2% milk, 200 ng/uL BSA, 50 ng/uL salmon testes DNA, 0.02% TX-100; detection with Alexa 488 anti-His …; high values mean tight binding; most listed sequences are background and not binding sites; double strand, one strand shown.
UniProt P61244, sequence (P61244 whole entry): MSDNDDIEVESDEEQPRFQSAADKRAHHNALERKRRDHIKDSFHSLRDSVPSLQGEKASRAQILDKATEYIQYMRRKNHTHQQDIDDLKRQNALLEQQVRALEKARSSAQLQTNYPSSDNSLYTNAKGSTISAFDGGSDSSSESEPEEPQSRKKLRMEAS
Consider AAGTGCAC, for which the binding signal (normalized occupancy) came to 0.0774. Take CGTTGTTC: the binding signal (normalized occupancy) amounted to 0.0743.

Regarding AGTCGCCA, the binding signal (normalized occupancy) stood at 0.0708. As for AGACAAAC, the binding signal (normalized occupancy) was 0.0692.

Consider CGTAGGAC, for which the binding signal (normalized occupancy) was 0.0708. Regarding AAGACGCG, the binding signal (normalized occupancy) is 0.0745. In the case of ACGGCTCA, the binding signal (normalized occupancy) worked out at 0.0723.

On to GTACTCAC, for which the binding signal (normalized occupancy) stood at 0.0734. GGGATCAC: the binding signal (normalized occupancy) was 0.0823. As for CGTACGGC, the binding signal (normalized occupancy) came to 0.0778. For ACGGCATC, the binding signal (normalized occupancy) came out at 0.0761.

In the case of AAAGTTCC, the binding signal (normalized occupancy) was determined as 0.074. As to ATGGAATA, the binding signal (normalized occupancy) worked out at 0.0803. For ACTATATC, the binding signal (normalized occupancy) was 0.0848.

ATTCCGGG: the binding signal (normalized occupancy) was determined as 0.0703. CCCAGTTA: the binding signal (normalized occupancy) was determined as 0.0735. As for AACGTTCT, the figure is 0.0733; as for CGCCCGCA, 0.0687. As for AACGGGCT, the figure is 0.0686; as for CAGGGGCG, 0.0724; as for AGCTTCAA, 0.075. TCCACAGA: the binding signal (normalized occupancy) is 0.0771. GAGCGGAA: the binding signal (normalized occupancy) was 0.0691. For the sequence CCAGGGAA, the binding signal (normalized occupancy) was found to be 0.0806.

For the sequence CCGTGAGC, the binding signal (normalized occupancy) was determined as 0.0713. Regarding CCCTCAAG, the binding signal (normalized occupancy) was 0.0749. On to CCCGATAG, for which the binding signal (normalized occupancy) stood at 0.077. As for ACCTTGCA, the figure is 0.0711; as for GTGCAAAA, 0.0757; as for GCCAAACA, 0.075.

Regarding TATAGCAA, the binding signal (normalized occupancy) was found to be 0.0828. As to AGTCTATA, the binding signal (normalized occupancy) came out at 0.0752. Next, GTTGGTGA: 0.082; ACAGGTAC: 0.0756; ACTTAGAT: 0.0793. Take GTTGTCCA: the binding signal (normalized occupancy) was 0.0734. In the case of ACGGACGC, the binding signal (normalized occupancy) is 0.0716. Turning to TCGTCTAA, the binding signal (normalized occupancy) came to 0.0693. As for CGGATCTC, the figure is 0.076; as for AGGCGGGA, 0.075; as for CGCCCTCC, 0.0755.

With ACCGGCCT, the binding signal (normalized occupancy) is 0.073. Turning to CAAAGTAA, the binding signal (normalized occupancy) amounted to 0.0722. As for CTGGCCCC, the figure is 0.0702. For CCGTCAAC, the binding signal (normalized occupancy) was 0.0656. Take CCCCCCCA: the binding signal (normalized occupancy) came out at 0.0901. In the case of CCTAATTA, the binding signal (normalized occupancy) was determined as 0.0783. For GGCCCACC, the binding signal (normalized occupancy) was determined as 0.0717.

On to AGGGTTGC, for which the binding signal (normalized occupancy) was 0.0731. For ACCTTGAG, the binding signal (normalized occupancy) came to 0.0742. With AACGACTC, the binding signal (normalized occupancy) is 0.0713. As for CTTCTCCA, the binding signal (normalized occupancy) was determined as 0.0743. For CGGATTCC, the binding signal (normalized occupancy) is 0.0695. Regarding CCGGGCTC, the binding signal (normalized occupancy) is 0.0634. TGATGCAA: the binding signal (normalized occupancy) worked out at 0.0767. Next, CTACATAG: 0.0805; ACATTAAG: 0.0842; AACTGAAG: 0.0704. For ATTATCGG, the binding signal (normalized occupancy) was found to be 0.0741. Next, AGAAATTC: 0.0709; GATATGCC: 0.0773.

Consider ACAGACGA, for which the binding signal (normalized occupancy) came out at 0.0752.

In the case of AATGTGGA, the binding signal (normalized occupancy) was found to be 0.0903. In the case of ATAGACAA, the binding signal (normalized occupancy) is 0.0787. In the case of ATAATCGA, the binding signal (normalized occupancy) worked out at 0.074.

For ACTTAGAG, the binding signal (normalized occupancy) amounted to 0.0744.

As to AAACCACA, the binding signal (normalized occupancy) turned out to be 0.0814. Next, TCCGGGCA: 0.0678. Turning to CGATGGAA, the binding signal (normalized occupancy) is 0.076. Next, AACTAATA: 0.0803; CATCGCCG: 0.0697. For the sequence CCTGCAAC, the binding signal (normalized occupancy) stood at 0.0785. For ATAGAGTG, the binding signal (normalized occupancy) came to 0.0742. Regarding ACCGAAAA, the binding signal (normalized occupancy) was found to be 0.072.

In the case of ATGATTTA, the binding signal (normalized occupancy) amounted to 0.079. Take AAATTATC: the binding signal (normalized occupancy) worked out at 0.078.

For the sequence CTACGAAG, the binding signal (normalized occupancy) came out at 0.0698. As for AGCTACCT, the figure is 0.0689. On to CACGCATC, for which the binding signal (normalized occupancy) was determined as 0.0962. As for ACCCCTCT, the figure is 0.0728; as for ATGTCCCG, 0.0773; as for AGGGTCTC, 0.0786. With CGAGGTTA, the binding signal (normalized occupancy) was found to be 0.0789. AGAGCCAC: the binding signal (normalized occupancy) is 0.0769. Consider AAAGGGCT, for which the binding signal (normalized occupancy) came to 0.0666. As for AAGGACCC, the binding signal (normalized occupancy) amounted to 0.0707. As for GTATTGTA, the figure is 0.0817; as for ATGTATTC, 0.0814.

Turning to TAATCGCA, the binding signal (normalized occupancy) was determined as 0.0751. Regarding ACATACGA, the binding signal (normalized occupancy) amounted to 0.0787. Next, CTGTGTCC: 0.0689; CAAGCATC: 0.0744. Turning to ATTTAGGG, the binding signal (normalized occupancy) stood at 0.0752. As for GAGGGTGC, the figure is 0.082.

With CTCAATCC, the binding signal (normalized occupancy) is 0.0714. On to AGGCATAT, for which the binding signal (normalized occupancy) came to 0.0855. TCCCTCGA: the binding signal (normalized occupancy) was determined as 0.0734. With ATGTAACA, the binding signal (normalized occupancy) was 0.0853. On to ACATCACT, for which the binding signal (normalized occupancy) was determined as 0.0768.

Take GGCGAACA: the binding signal (normalized occupancy) is 0.0765. As for CTTGGTCC, the binding signal (normalized occupancy) was 0.0723. With ACCCGCTC, the binding signal (normalized occupancy) amounted to 0.0757.

Turning to CTGTTGTC, the binding signal (normalized occupancy) came to 0.0733. Regarding ACAGAGAA, the binding signal (normalized occupancy) stood at 0.0789. With CTTTGCAC, the binding signal (normalized occupancy) stood at 0.075.

In the case of AAGAGCTT, the binding signal (normalized occupancy) came out at 0.0667.

With CGACGAGC, the binding signal (normalized occupancy) stood at 0.0684. As to GGGTCAAC, the binding signal (normalized occupancy) amounted to 0.0749.

As to CTACTCCA, the binding signal (normalized occupancy) came to 0.0773. Turning to CGTGGCAC, the binding signal (normalized occupancy) worked out at 0.0871. As for CATATCTC, the figure is 0.0851. In the case of CCCGCCAG, the binding signal (normalized occupancy) turned out to be 0.0714. Turning to ATGTCTAC, the binding signal (normalized occupancy) is 0.0813. As to CCCACTAA, the binding signal (normalized occupancy) was 0.0821.

GCTATGCA: the binding signal (normalized occupancy) was 0.0745. For AAGGAAAA, the binding signal (normalized occupancy) is 0.0772. In the case of ACAAATAA, the binding signal (normalized occupancy) amounted to 0.0777. Regarding CCTATCAA, the binding signal (normalized occupancy) was 0.0786. As to ACCTCTAC, the binding signal (normalized occupancy) was 0.075.

With ATTGTGAC, the binding signal (normalized occupancy) is 0.0766. On to CATAAACG, for which the binding signal (normalized occupancy) was determined as 0.08. Consider GCCAAGGC, for which the binding signal (normalized occupancy) came out at 0.0701.

As for GATGTCGC, the binding signal (normalized occupancy) is 0.0759. Take GGCGCTAA: the binding signal (normalized occupancy) worked out at 0.0688. As for GCATCCCA, the binding signal (normalized occupancy) was determined as 0.0903.

In the case of ACCACTCT, the binding signal (normalized occupancy) came out at 0.075. For the sequence AGCCCAGG, the binding signal (normalized occupancy) was 0.0653.

Consider CAAAAGGC, for which the binding signal (normalized occupancy) came to 0.0663. Regarding GCCGCCCC, the binding signal (normalized occupancy) turned out to be 0.0703.

As for TCGCGAAA, the binding signal (normalized occupancy) was found to be 0.0675. For the sequence GGACCATA, the binding signal (normalized occupancy) came to 0.0795. GACTGATA: the binding signal (normalized occupancy) worked out at 0.0742. Consider CTCTGGCC, for which the binding signal (normalized occupancy) is 0.0668. Consider AGCGCGCG, for which the binding signal (normalized occupancy) amounted to 0.0841. Consider AGCACCCA, for which the binding signal (normalized occupancy) was found to be 0.0772. Regarding AGGCTATG, the binding signal (normalized occupancy) came to 0.0762.

Regarding ACGAAACT, the binding signal (normalized occupancy) was 0.0701. In the case of CTCTGTTC, the binding signal (normalized occupancy) was 0.0751. On to ATAGGCAC, for which the binding signal (normalized occupancy) was found to be 0.0803. With AAATACTG, the binding signal (normalized occupancy) amounted to 0.0762. Next, GCCCATAC: 0.0818. As for AGCGTCAC, the figure is 0.0737; as for ATAGGATC, 0.0763; as for ATGTTACA, 0.0803. With CCCCTGCG, the binding signal (normalized occupancy) amounted to 0.0735.

As for GAACGACC, the binding signal (normalized occupancy) came to 0.0745. For the sequence GCAACACA, the binding signal (normalized occupancy) was found to be 0.0795. Next, CGATCTTC: 0.072. On to CCCCACTC, for which the binding signal (normalized occupancy) came out at 0.0848. Regarding AGAACTAG, the binding signal (normalized occupancy) is 0.0659.

Take ATCCTAAT: the binding signal (normalized occupancy) is 0.0837. Regarding AATTAGTC, the binding signal (normalized occupancy) is 0.0741. Take TCAACGGA: the binding signal (normalized occupancy) is 0.0741. In the case of TCGATCAA, the binding signal (normalized occupancy) came to 0.0743. Next, AGACAGTA: 0.0793.

Regarding CTCTTCGA, the binding signal (normalized occupancy) stood at 0.0653.

For AGGTAGGA, the binding signal (normalized occupancy) was 0.0722.

For the sequence CAACTTAA, the binding signal (normalized occupancy) turned out to be 0.0723. On to CTGACCTC, for which the binding signal (normalized occupancy) was 0.0774. Consider GTATGGCA, for which the binding signal (normalized occupancy) came out at 0.0837. Turning to GACTTTGC, the binding signal (normalized occupancy) amounted to 0.0705. Take AGACACAT: the binding signal (normalized occupancy) came out at 0.0849. Consider ACCGTCGG, for which the binding signal (normalized occupancy) was determined as 0.0667. Regarding AGGTTGGA, the binding signal (normalized occupancy) was determined as 0.0747. In the case of GACCGGTA, the binding signal (normalized occupancy) was determined as 0.0674. CCCAGAGC: the binding signal (normalized occupancy) is 0.0671. With CCATGCCG, the binding signal (normalized occupancy) came out at 0.1. Next, AAGCGGTG: 0.0684. Next, GACACATA: 0.0836; CTGCACAG: 0.0707; GCCCCGGC: 0.0656. On to GACGAACC, for which the binding signal (normalized occupancy) is 0.0703.
